In all, about 310,000 compounds went through this assay and about 14,000 (4.5%) showed an effect of 50% or more. The effect is printed as a negative number. Some of the results follow.
target: human ether-à-go-go-related gene (hERG) potassium channel (human, UniProt Q12809); assay: primary screen, population patch clamp on CHO cells stably expressing hERG
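Further: peak tail current of the secondary pulse compared with the same well before compound.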

human ether-à-go-go-related gene (hERG) potassium channel, sequence (Q12809 whole entry, looked up): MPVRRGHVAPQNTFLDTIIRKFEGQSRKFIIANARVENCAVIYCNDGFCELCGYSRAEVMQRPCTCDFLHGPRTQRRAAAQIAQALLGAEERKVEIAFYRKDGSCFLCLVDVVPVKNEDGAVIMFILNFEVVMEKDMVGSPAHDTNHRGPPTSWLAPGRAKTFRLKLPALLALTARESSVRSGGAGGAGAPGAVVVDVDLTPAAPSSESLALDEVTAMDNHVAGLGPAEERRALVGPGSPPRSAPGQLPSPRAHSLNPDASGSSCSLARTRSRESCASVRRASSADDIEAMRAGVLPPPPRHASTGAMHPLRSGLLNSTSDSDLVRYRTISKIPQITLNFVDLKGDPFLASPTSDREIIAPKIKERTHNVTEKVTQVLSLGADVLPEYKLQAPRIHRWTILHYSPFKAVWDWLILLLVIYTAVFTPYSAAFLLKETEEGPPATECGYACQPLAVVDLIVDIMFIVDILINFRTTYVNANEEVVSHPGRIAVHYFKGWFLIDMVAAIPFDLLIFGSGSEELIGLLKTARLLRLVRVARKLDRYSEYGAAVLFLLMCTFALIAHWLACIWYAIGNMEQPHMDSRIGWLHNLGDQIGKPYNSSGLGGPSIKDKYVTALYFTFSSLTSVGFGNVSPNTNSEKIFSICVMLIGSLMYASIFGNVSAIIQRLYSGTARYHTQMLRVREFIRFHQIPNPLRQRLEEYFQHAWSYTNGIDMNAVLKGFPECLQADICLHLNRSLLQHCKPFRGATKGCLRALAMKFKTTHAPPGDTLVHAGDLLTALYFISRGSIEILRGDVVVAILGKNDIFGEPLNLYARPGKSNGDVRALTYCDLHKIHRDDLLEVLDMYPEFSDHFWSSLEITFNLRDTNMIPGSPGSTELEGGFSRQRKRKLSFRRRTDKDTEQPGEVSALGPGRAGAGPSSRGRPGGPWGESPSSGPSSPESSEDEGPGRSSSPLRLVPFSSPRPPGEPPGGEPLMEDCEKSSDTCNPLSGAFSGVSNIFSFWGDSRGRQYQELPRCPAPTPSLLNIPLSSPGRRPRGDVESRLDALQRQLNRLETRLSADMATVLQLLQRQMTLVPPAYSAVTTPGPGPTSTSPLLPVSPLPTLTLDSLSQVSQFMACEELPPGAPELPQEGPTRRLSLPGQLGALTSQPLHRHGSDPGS

Structure (SMILES) | hERG current change (%, negative = inhibition) at 10uM
Cc1c[n+]([O-])cc(C)c1Oc1ccccc1 | 5.95%
CCCN(CC(=O)Nc1ccc(OC)c(OC)c1)CC(=O)Nc1ccc(F)c(F)c1F | -24.6%
CC(C)(CO)NC(=O)Nc1ccc(Cl)c(Cl)c1 | 19.4%
Cc1ccc(-c2cc(C(=O)Nc3cc(C)ccc3C)[nH]n2)c(O)c1 | 17.4%
CN(Cc1ccccc1)C(=S)Nc1cccnc1 | 9.05%
Cc1ccc(O)c(N/C=C/C(=O)c2ccc(F)cc2)c1 | 5.9%
CC(C)(C)C1=C(C#N)C(c2ccncc2)C(C#N)=C(N)O1 (centres unmarked) | -7.03%
Cc1ccc(N2CCC(N3CCN(C4CCCCC4)C(CCO)C3)CC2)cc1 (centres unmarked) | -31.7%
COc1ccc(C(=O)NC2CCN(C(=O)NCc3ccccc3)CC2)cc1 | -5.45%
CCN(CC)CC.COc1ccccc1-n1c(=S)[nH]c2c(sc(=S)n2-c2ccccc2C)c1=O | 19.2%
COC(=O)c1nnn(CC(=O)Nc2ccc(C)c(F)c2)c1C(=O)OC | 10.4%
Cc1nn(-c2ccccc2)c(C)c1C(=O)OCC(=O)N1CCN(S(=O)(=O)c2ccccc2)CC1 | -11%
O=C1CC(C(=O)Nc2ccc(Cl)cc2[N+](=O)[O-])C2(CCCCC2)O1 (centres unmarked) | 5.12%
COCC(=O)N1CCC(Oc2ccc(C(=O)NC3Cc4ccccc4C3)cc2)CC1 | -3.57%
CC(=O)N1CCCc2cc(S(=O)(=O)NCc3ccc(C)cc3)ccc21 | -14.9%
COc1ccccc1Nc1nnc(SCc2nnc(-c3cc(OC)c(OC)c(OC)c3)o2)s1 | -21.7%
O=C(NCc1ccccc1)c1onc(CSc2ccc(F)cc2)c1C(=O)NCc1ccccc1 | 1.49%
CCSc1nnc(NC(=O)[C@@H](NC(=O)c2cccc(C)c2)C(C)C)s1 | -14.1%
O=C(c1cc(-c2ccccc2)on1)N1CCCC1 | 9.39%
C=CCN(C(=O)c1ccc2snnc2c1)c1ccccc1 | -9.13%
CC(C)C(c1nnnn1Cc1ccccc1)N(Cc1ccco1)Cc1cccs1 (centres unmarked) | 4.69%
CC(=O)Nc1ccc(/C=N/NC(=O)c2cccc(S(=O)(=O)N3CCOCC3)c2)cc1 | 28.2%
CCC(C)NC(=O)c1ccccc1NC(=O)CN(c1ccc(OC)cc1)S(C)(=O)=O (centres unmarked) | 1.59%

Structure (SMILES) | hERG current change (%, negative = inhibition) at 10uM
CC(C)Oc1ccc(S(=O)(=O)N2CCCCC2)cc1NC(=O)CC1OC(=O)c2ccccc21 (centres unmarked) | -13.8%
O=C(NCCN1CCOCC1)c1cccc(S(=O)(=O)N2CCCCC2)c1 | 12.9%
CCOc1ccc(OCC(O)CNC2CCN(Cc3ccccc3)CC2)cc1.O=C(O)C(=O)O (centres unmarked) | -62.8%
CCOC(=O)c1cc(C(C)(C)C)nc(SC)c1C#N | 16.2%
Cc1ccccc1-n1ncc2c1CC(C)(C)CC2NC(=O)CCN1Cc2ccccc2C1=O (centres unmarked) | -3.54%
Cc1ccc(Cl)c2sc(N3CCN(C(=O)c4ccco4)CC3)nc12 | -10.3%
O=C(C1CCC1)N1CCc2cc(S(=O)(=O)NC3CCCc4ccccc43)ccc21 (centres unmarked) | 6.89%
Cc1ccc2cccc(S(=O)(=O)Nc3ccc4c(c3)OCO4)c2n1 | -10.5%
O=C(NCc1ccco1)c1ccc(COc2cccc3ccccc23)cc1 | -6.18%
C=CCNC(=O)c1c(C(F)(F)F)nn(C)c1Cl | -12.7%
O=C(O)c1ccccc1C(=O)c1cccs1 | 15%
O=C(CCC1CCN(C(=O)c2ccccc2Cl)CC1)NCc1ccc(F)cc1 | -18.9%
CCOC(=O)C1=C(C)NC(SC)=NC1c1ccccc1.I (centres unmarked) | -1.61%
CCCCNC(=O)[C@H](CSCc1ccccc1)N1Cc2ccccc2C1=O | -68.5%
Cc1ccc(NC(=O)c2csc3c2CCCC3)cc1 | 31.1%
CCOc1ccccc1NC(=O)CCNS(=O)(=O)c1ccccc1 | 17.6%
c1cc(-n2nnc3cnccc32)ccn1 | 11.8%
Cc1cccc(-c2nc3ccccc3c(=O)n2NC(=O)Cc2ccc(Cl)cc2)c1 | -5.01%
CCOC(=O)C1CC(C)=C(C)CC1C(=O)O (centres unmarked) | 9.68%
CNC(=O)CO/N=C/c1ccc(N(C)C)cc1 | 4.5%
Cc1ccc(-c2nc(CN3CCCCC3CCN3CCCC3=O)c(C)o2)o1 (centres unmarked) | -51.5%
CCS(=O)(=O)N1CCN(S(=O)(=O)c2ccc3c(c2)OCCO3)CC1 | 17.5%
C[n+]1c(/C=C/c2ccc(O)cc2)ccc2ccccc21.[I-] | -40.3%

Structure (SMILES) | hERG current change (%, negative = inhibition) at 10uM
CCC(C)NC(=O)CSc1nnc(-c2cc(-c3cccs3)nc3ccccc23)o1 (centres unmarked) | -0.833%
COc1cc(C2OCC3C(c4ccc(OC5OC(CO)C(O)C(O)C5O)c(OC)c4)OCC23)ccc1O (centres unmarked) | -2.25%
COC(=O)c1ccc(-n2nnnc2SCC(=O)N2CCCCC2)cc1 | 8.52%
Cc1ccc(C(=O)NNC(=O)c2ccccc2)cc1S(=O)(=O)N1CCCCC1 | -13.4%
COc1cccc(CNC(=O)C2CCN(S(=O)(=O)c3cccs3)CC2)c1 | -37.7%
COc1ccc(CCNc2nc(-c3cccc(NC(C)=O)c3)cs2)cc1OC | -17.6%
O=C(NCc1csc(-c2cccs2)n1)Nc1ccc(C(F)(F)F)cc1 | 6.25%
C=CCNC(=O)c1c(Cl)cnn1-c1ccc(C)cc1 | -4.22%
CSc1nc(N)c2c3c(sc2n1)COC(C(C)C)C3 (centres unmarked) | -12.1%
CC1CN(C(=O)CSc2nc(N)cc(N)n2)CC(C)O1 (centres unmarked) | -10.3%
CC(=O)c1ccc(-c2ccc(C(=O)N3CCCc4ccccc43)o2)cc1 | 27.2%
CNC(=O)NC(=O)COC(=O)CCCOc1ccc(OC)cc1 | 20.5%
CC(NC(=O)COC(=O)c1ccc2ccccc2n1)C1CC2CCC1C2 (centres unmarked) | 13.4%
CN1/C(=C\C(=O)c2cccnc2Cl)C(C)(C)c2ccccc21 | -9.26%
CC(=O)Nc1cccc(NC(=O)CSc2ncc(C(=O)Nc3ccccc3)c(=O)n2C)c1 | 7.03%
CCO[C@@H]1OC(C(=O)O)=C[C@H](c2csc3ccccc23)[C@H]1CCCO | -3.12%
CC(=O)NS(=O)(=O)c1ccc(N/C(N)=N/c2nc(C)cc(C)n2)cc1 | 13.3%
Nn1c(SCC(=O)Nc2ccccc2Br)nnc1-c1ccco1 | -20.7%
NC(=O)CN1C(=O)C2C3C=CC(C3)C2C1=O (centres unmarked) | 10.4%
COc1ccc(C(=O)Nc2cc(=O)n(C)c(=O)n2C)cc1 | 0.872%
Cn1nccc1C(=O)c1ccc(Cl)cc1 | -14.8%
CCOC(=O)Cn1nc(C)n(-c2ccc(C(C)C)cc2)c1=O | -1.13%
O=C(O)c1ccc(S(=O)(=O)N(Cc2ccccc2)C2CCCCC2)cc1 | 4.19%

Structure (SMILES) | hERG current change (%, negative = inhibition) at 10uM
CCS(=O)(=O)N1CCN(C(=O)c2ccccc2[N+](=O)[O-])CC1 | 15.5%
O=C(OCCN=C1NS(=O)(=O)c2ccccc21)c1cccs1 | 9.68%
COC(=O)CCC(=O)OC1(C)C(=O)C2=COC(c3ccc(OC)cc3)=CC2=C(Br)C1=O (centres unmarked) | 9.76%
Cl.NCCS(=O)(=O)NC1CCCCC1 | 14.5%
O=C1c2ccccc2C(=O)c2c1ccc1c(=O)n(C3CCCCC3)[nH]c21 | -1.1%
CC1CCN(C(=O)c2ccc(Br)c(S(=O)(=O)N3CCOCC3)c2)CC1 | -3.74%
COc1ccccc1/C=C1\SC(=S)N(CCC(=O)N2CCN(C)CC2)C1=O | 13.9%
O=C(Nc1cccc(C(F)(F)F)c1)C1=CC=CN2CCS(=O)(=O)N=C12 | -35%
C/C(=N/NS(=O)(=O)c1ccc(C)cc1)c1ccc2c(c1)OCO2 | 13%
CCCCN(Cc1cc2ccccc2[nH]c1=O)S(C)(=O)=O | -0.365%
COc1ccc(N2C(=O)CC(S/C(N)=N/N=C/c3ccnc4ccccc34)C2=O)cc1 (centres unmarked) | 13.6%
Cc1ccc(S(=O)(=O)NC(c2ccccc2)C(C)C(=O)n2nc(C)cc2C)cc1 (centres unmarked) | 1.62%
CCN(C1CCCCC1)S(=O)(=O)c1ccc(C(=O)O)cc1 | 6.74%
COc1ccc(CNC(=O)C2(CC3CC(c4ccccc4)=NO3)CCN(C(=O)C3CCCC3)CC2)cc1 (centres unmarked) | -71.6%
O=C(Nc1nc2ccccc2s1)C1CCN(C(=O)c2ccco2)CC1 | -41.9%
O=C(Cc1ccc(F)cc1)Nc1cccc(-c2cn3c(n2)SCC3)c1 | -16.6%
Cc1cc2nnc(SC(C)C#N)n2c2ccccc12 (centres unmarked) | -1.57%
CC(Oc1ccc2c3c(c(=O)oc2c1)CCC3)C(=O)NCc1cccnc1 (centres unmarked) | -9.15%
Cc1ccsc1/C=N/NC(=O)c1nnn(-c2nonc2N)c1CSc1ccccc1 | 21.5%
COc1cc(-c2nnn(CC(=O)N3CCOCC3)n2)cc(OC)c1OC | 3.36%

Reference: PMC4336329 (PLoS ONE, 2015)
